Source: the RNAGym collection of RNA variant scans (doi:10.7554/elife.90254)
The source gives no read counts; variants with many changes may rest on few reads.

B1: OR4K15 (parent)
chain: GUUAACGGUCAUAGGCCAUGGAAACUAGGAGCACCAUUUCGCUGCCAGUGAAGAAAUGAACAAAGAAAAUCUGGGCCAGGCAGGCAUCAAAAGAAAUAGUCUUGCGCUCAACCAGAAAGUCUGUAAUCAUUUUAAGGGUA

Variants of: B1
Assay: self-cleavage, relative activity (ratio to wild type); higher = more cleavage; in vitro, sequencing; the parent is a self-cleaving ribozyme

Variant | self-cleavage
GUUAACGGUCAUAGGCCAUGGAAACUAGGAGCACCAUUUCGCUGCCAGCGAAGAAAUGGACAAAGAAAAUCUGGGCCAGGCAGGCAUCAAAAGAAAUAGUCUUGCGCUCAACCAGAAAGUCUGUAAUCAUUAUAAGGGUA [U49C A59G U132A] | 0.95
GUUAACGGUCAUAGGCCAUGGAAACUAGGAGCACCAUUUCGCUUCCAGUGAAGAAAUGAACAAAGAAAAUCUGGGCCAGGCAGGCAUCAAAAGAAAUAGUCUUGCGCCCAACCAGAAAGUCUGUAGCCACUUUAAGGGUA [G44U U108C A126G U127C U130C] | 0
GUUAACGGUCAUAGGCCAUGGAAACUAGGAGCACCAUCACGCUGCCAGUGAAGGAAUGAACAAAGAAAAUCUGGGCCAGGCAGGCAUCAAAAGAAAUAGUCUUGCGCUCAACCAGAAAGUCUGUAAUCAUUUUAAGGGUA [U38C U39A A54G] | 1.4
GUUAACGGUUAUAGGCCAUGGAAACUAGGAGCACCAUUUCGCUGCCAGUGAAGAAAUGAGCAAAGAAAAUCUGGGCCAGGCAGGCAUCAAAAGAUAUAGUCUUGCGCUCAACCAGAGAGUCUGUAAUCAUUUUAAGGGUG [C10U A60G A95U A117G A140G] | 0.05
GUUAACGGUCAUAGGCCAUGGAAACUAGGAGCACCAUUUCGCUGCCAGCGAAGAAAUGAACAAAGAAAAUCUGGGCCAGGCGGGCAUCAAAAGAAAUAGUCUUGCGCUCGACCAGAAAGUCUGUAAUCAUUUUAAGGGUA [U49C A82G A110G] | 0.07
GUUAACGGUCGUAGGCCAUGGAAACUAGGAGCACCAUUUCGCUGCCGGUGAAGAAAUGAACAAAGAAAAUCUGGGCCAGGCAGGCAUCAAAAGAAAUAGUCUUGCGCUCAACCAGAAAGUCUGUAAUUAUUUUAAGGGUA [A11G A47G C128U] | 0.14
GUUAACGGUCAUAGGCCAUGGAAACUAGGAGCACCAUUUCGCAGCCAGUGAAGAAGUGAACAAAGAAAAUCUGGGCCAGGCAGGCAUCGAAAGAAAUAGUCUUGCGCUCAACCAGAAAGUCUGUAAUCAUUUUAAGGGUA [U43A A56G A89G] | 1.26
GUUAACGGUCGUAGGCCAUGGAAACUAGGAGCGCCAUUUCGCUGCCAGUGAAGAAAUGAACAAAGAAAGUCUGGGCCAGGCAGGCAUCAAAAGAAAUAGUCUUGCGCUCAACCAGAAAGUCUGUAAUCAUUUUAAGGGUA [A11G A33G A69G] | 0.6
GUUAACGGUCAUAGGCCAUGGAAACUAGGAGCACCAUUUCGCUGCCAGUGAAGAAAUGAACAGAGUAAAUCUGGGCCAGGCAGGCAUCAAGAGAAACAGUCUUGCGCUCAACCAGAAAGUCUGUAAUCAUUUUAAGGGUA [A63G A66U A91G U97C] | 0.9
GUUAACGGUCAUAGGCCAUGGAAACUAGGAGCACCAUUUCGCUGCCAGUGAAGAAAUGAACGAAGAAAAUCUGGGCCAGGCAGGCAUCAAAAGAAAUAGUCCUGCGCUCAACCUGAAAGUCUGUAAUCAUUUUAGGGGUA [A62G U102C A114U A135G] | 0.11
GUUAACGGUCAUAGGCCAUGGAAACCAGGAGCACCAUUUCGCUGCCAGUGAAGAAAUGAACAAAGAAAUUCUGGGCCAGGCAGGCAUCAAAGGAAAUAGUCUUGCGCUCAACCAGAAAGUCUGUAAUCAUUUUAAGGGUA [U26C A69U A92G] | 1.44
GUUAACGGUCAUAGGCCAUGGAAACUAGGAGCACCAUUUCGCUGCCAGAGAAGAAAUGAACAAAGAGAAUCUGGGCCAGGCAGGCAUCAAAAGGAAUAGUCUUGCGCUCAACCAGAAAGUCUGUAAUCAUUUUAAGGGUA [U49A A67G A94G] | 1.17
GUUAACGGUCAUAGGCCUUGGGAACUAGGAGCACCAUUUCGCUGCCAGUGGAGGAAUGAACAAAGAAAAUCUGGGCCAGGCUGGCAUCAAAAGAAAUGGUCUUGCGCUCAACCAGAAAGUCUGUGAUCAUUUUAAGGGUA [A18U A22G A51G A54G A82U A98G A125G] | 0.05
GUUAACGGUCAUAGGCCACGGAAACUAGGAGCACCAUUUCGCUGCCAGUGAAGAAAUGGACAAAGUAAAUCUGGGCCAGGCAGGCAUCAAAAGAAAUAGUCUUGCGCUCAACCAGAAAGUCUGUAAUCAUUUUAAGGGUA [U19C A59G A66U] | 1.38
GUUAACGGUCAUAGGCCAUGGAAACUAGGAGCACCACUUCGCUGCCAGUGAAGAAAUAAACAAAGAAAAUCUGGGCCAGGCAGGCAUCAAAAGAAAUAGUCCUGCGCCCAACCAGAAAGUCUGCAAUCAUUUUAAGGGUA [U37C G58A U102C U108C U124C] | 0.01
GUUAACGGUCAUAAGCCAUGGAAACUAGGAGCACCAUUUCGCUGCCAGUGGGGAAAUGAACAAAGAAAUUCUGGGCCAGGCAGGCACCAAAAGAAAUAGUCUUGCGCUCAACCAGAAUGUCUGUAAUCAUUUUAAGGGUA [G14A A51G A52G A69U U87C A118U] | 0.86
GUUAACGGUCAUAGGCCAUGGAAACUAGGAGCACCAUUUCGCUGCCAGUGAAGAAAUGAACAAAGAAAAUCUGGGCCAGGCAGGCAUCAAGAGAAAUAGUCUUGCGCCCAACCAGAAUGUCUGUAAUCAUUUUAAGGGUA [A91G U108C A118U] | 0.01
GUUAACGGUCAUAGGCCAUGGAAACUGGGAGCACCAUUUCGCUGCCAGUGACGAAAUGAACAAAGUAAAUCUGGGCCAGGCAGGCAUCAAAAGAAAUAGUCUUGCGCUCAACCGGAAAGUCUGUAAUCAUUUUAAGGGUA [A27G A52C A66U A114G] | 0.03
GUUAACGGUCAUAGGCCAUGGAAACUAGGAACACCAUUUCGCUGCCAGUGAAGAAAUGAACAUAGAAAAUCUGGGCCUGGCAGGCAUCAAAAGAAAUAGUCUUGCGCUCAACCAGAAAGUCUGUAAUCAUAUUAAGGGUA [G31A A63U A78U U131A] | 0.23
GUUAACGGUCAUAGGCCAUGGAAACUAGGAGCACCACUUCGCUGCCAGUGAAGAAAUGAACAAAGGAAAUCUGGGCCAGGCAGGCAUCAAAAGAAAUAGUCUUGCGCUCAACCAGAAAGUCUGUAAUCAUUUUGAGGGUA [U37C A66G A134G] | 1.48
GUUAACGGUCAUAGGCCUUGGAAACUAGGAGCACCAUUUCGCUGCCAGUGAAGAAAUGAACAAAGAAAAUCAGGGCCAGGCAGGCAUCAAAAGAAAUAGUCUUGCGCUCAACCAGGAAGUCUGUAAUCAUUUUAAGGGUA [A18U U72A A116G] | 0.08

Variant | self-cleavage
GUUAACGGUCAUAGGCCAUGGAAACUAGGAGCACCAUUUCGCUGCCAGUGAAGAAAUGAACAAAGAACAUCUGGGCCAGGCAGGCAUCAAAAGAAAUAGCCUUGCGCUCAACCGGAAAGUCUGUAAUCAUUUUAAGGGUA [A68C U100C A114G] | 0.57
GUUAACGGUCAUGGGCCAUGGAAACUAGGAGCACCACUUCGCUGCCAGUGAAGAAAUGAACAAAGAAAAUCUGGGCCAGGCAGGCAUCAAAAGAAAUAGUCUUGCGCUCAACCAGCAAGUCUGUAAUCAUUUUAAGGGUA [A13G U37C A116C] | 0.06
GUUAACGGUCAUAGGCCAUGGAAACUAGGAGCACCAUCUCGCUGCCAGGGAAGAAAUGAACAAAGAAAAUCUGGGCAAGGCAGGCAUCGAAAGAAAUAGUCUUGCGCUCAACCAGAAAGUCUGAAAUCAUUUUAAGGGAA [U38C U49G C77A A89G U124A U139A] | 0.27
GUUAUCGGUCAUAGGCCAUGGAAACUAGGAGCACCAUUUCGCUGCCAGUGAAGAAACGGACAAAGAAAAUCUGGGCCAGGCAGGCAUCAAAAGAAAUAGUCUUGCGCUCAACCAGAAAGUCUGUAAUCAUUUUAAGGGUA [A5U U57C A59G] | 0.89
GUUAACGGUCAUAGGCCAUGGAAACUAGGUGCACCAUUUCGCUGCCAGUGAAGAAAUGAACAAAGAAAAUCUGGGCCAGGCGGGCAUCAAAAGAAAUAGUCCUGCGCUCAACCAGAAAGUCUGUAAUCAUUUUAAGGGUA [A30U A82G U102C] | 0.95
GUUAACGGUCAUAGGCCAUGGAAACUAGGGGCACCAUUUCGCUGCCAGUGAAGAAACGAACAAAGAAGAUCUGGGCCAGACAGGCAUCAUAAGAAAUAGUCUUGCGCUCAACCAGAAAGUCUGUAAUCAUUUUAAGGGUA [A30G U57C A68G G80A A90U] | 0.2
GUUAAAGGUCAUAGGCCAUGGAAACCAGGAGCACCAUUCCGCUGCCAGUGAAGAAAUGAACAAAGAAAGUCUGGGCCAGGCAGGCAUCAAAAGAAAUAUUCUUGCGCUCAACCAGAAAGUCUGUAAUCAUUUUAAGGGUA [C6A U26C U39C A69G G99U] | 0.5
GUUAGCGGUCAUAGGCCAUGGAAACUAGGAGCACCUUUUCGCUGCCAGUGAAGAAACGAACAAAGAAAAUCUGGGCCAGGCAGGCAUCAAAAGAAAUAGUCUUGCGCUCAACCAGAAAGUCUGUAAUCAUUUUAAGGGUA [A5G A36U U57C] | 0.44
GUUAACGGUCAUAGGCCAUGGAAACUAGGAGCACCAUUUCGCUGCCAGUGAAGAAAUGAACAAAGAAAAUCUGGGCCAGGCAGGCAUCAAAAGAAACAGUCUUGCGCUCAACCUGAAAGUCUGUAAUCAUUUUAAGGGUU [U97C A114U A140U] | 0.01
GUUAACGGUCAUAGGCCAUGGAAACUAGGAGCACCAUUUCGCUGCCAGUGAAGAAAUGAACAAAGAAGAUCUGGGCCAGGCAGGCAUCAAGAGAAAUAGUCUUGCGCUCAACCAGAAGGUCUGUAAUCAUCUUAAGGGUA [A68G A91G A118G U131C] | 0.37
GUUAACGGUCAUAGGCCAUGGAAACUAGGAGCACCAUUCCGCUGCCAGUGAAGAAGUGAACAAAGAAAAUCUGGGCCAGGCAGGCAUCAAGAGAAAUAGUCUUGCGCUCAACCAGAAAGUCUGUAAUCAUUUUAAGGGUA [U39C A56G A91G] | 0.92
GUUAACGGUCAUAGGCCAUGGAAACUAGGAGCACCACUUCGCUGCCAGUGGAGAAAUGAACAAAGAAAACCUGGGCCUGGCAGGCAUCAAAGGAAAUAGUCUUGCGCUCAACCAGAAAGUCUGUAAUCAUUUUAAGGGUA [U37C A51G U70C A78U A92G] | 0.31
GUUAACGGUCAUAGGCCAUGGAAGCUAGGAGCACCAUUUCGCUGCCAGUGAAGAAAUGGACAAAGAAAAUCUGGGCCAGGCAGGCAUCAAAAGAAGUAGUCUUGCGCUCAACCAGAAAGUCCGUAAUCAUUUUAAGGGUA [A24G A59G A96G U122C] | 2.44
GUUAACGGUCAUAGGCCAUGGAAACUAGGAGCACCAUUUCGCUGCCAGUGGAGAAAUGAACAAAGGAAAUCUGGGCCAGGCAGGCACCAAAAGAAAUAGUCUUGCGCUCGACCAGAAAGUCUGUAAUCAUUUUAAGGGUA [A51G A66G U87C A110G] | 0.13
GUUAACGGUCAUAGGCCAUGGAAACUAGGAGCACCAUUUCGCUGCCAGUGAGGAAAUGAACAAAGAAGAUCUGGGCCAGGCAAGCAUCAAAAGAAAUAGUCUUGCACUCAACCAGAAAGUCUGUAAUCAUUUUAAGGGUA [A52G A68G G83A G106A] | 0.02
GUUAACGGUUAUAGGCCAUGGAAACUAGGAGCACCAUUUCGCUGCCAGUGAAGAAAUGAACAAAGAAAAUCUGGGCCAGGCGGGCAUCAAAAGAAAUAGUCUAGCGCUCGACCAGAAAGUCUGUAAUCAUUUUAAGGGUA [C10U A82G U103A A110G] | 0.01
GUUAACGGUCAGAGGCCAUGGAAACUAGGAGCACCAUCUCGCUGCCAGUGAAGAAAUGAACGAAGAAAAUCUGGGCCAGGCAGGCAUCAAAAGAAAUAGUCUUGCGCUCAACCAGAAAGUCUGUAAUCAUUUUAAGGGUA [U12G U38C A62G] | 1.18
GUUAACGGUCAUAGGCCAUGGAAACUAGGAGCACCACUUCGCUGCCAGUGAAGAAAUGAACAAAGAAAAUCUGGGCCAGGCAGGCAUCAAAAGAAAUAGUCUUGCGCCCAACCAGAAAGUCUGUAAUCAUUUUAAGGAUA [U37C U108C G138A] | 0.02
GUUAACGGUCAUAGGCCAUGGAAACUAGGGGCACCAUUUCGCUGCCGGUGAAGAAAUGAACAAAGAAAAUCUGGGCCAGGCAGGCUUCAAAAGAAAUAGUCUUGCGCUCAACCAGAAAGUCUGUAAUCAUUUUAAGGGUA [A30G A47G A86U] | 1.5
GUUAACGGACAUAGGCCAUGGAAACUAGGAGCACCAUUUCGCUGCCAGUGAAGAAAUGAACAAAGAAAAUCUGGGCCAGGCAGGCAUCAAAAGAAAUAGUCUCGCGCUCAACCAGAAAGUCUGUAAUCAUUAUAAGGGUA [U9A U103C U132A] | 0.14
